The other results are listed elsewhere or left out.

The target of the experiment is T1, OsWOX13 (Oryza sativa, UniProt Q5QMM3 1-267).
T1 sequence: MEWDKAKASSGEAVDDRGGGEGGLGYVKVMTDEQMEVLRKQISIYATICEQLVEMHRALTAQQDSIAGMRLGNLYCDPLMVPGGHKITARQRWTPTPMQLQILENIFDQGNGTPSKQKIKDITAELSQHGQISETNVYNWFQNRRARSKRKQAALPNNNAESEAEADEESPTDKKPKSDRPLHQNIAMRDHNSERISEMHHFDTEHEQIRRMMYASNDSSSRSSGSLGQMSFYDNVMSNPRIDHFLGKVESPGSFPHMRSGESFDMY
Kind of experiment: protein-binding microarray (RPBM); PBS, 2% BSA, 51.3 ng/ul salmon testes DNA, 50 uM zinc acetate, 200 nM TF, 25 C, 1 h; high values mean tight binding. The following applies: protein: recombinant; tags: N-terminal polyhistidine and DsRed monomer fusion (pET32a); label: CyDye5-dUTP incorporated in the synthesized complementary strand; 3' TTTTT single-stranded linker to array surface; dsDNA, one strand shown. The procedure, abridged: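 Per-feature fluorescence intensity (arbitrary units), read on an Axon 4000B scanner, is the binding signal. Transcription factors carrying an N-terminal polyhistidine tag and DsRed fusion were expressed in E. coli BL21-CodonPlus and purified on Ni–NTA. A custom Agilent array, made double-stranded by primer extension with Cy5-dUTP and blocked with 2% BSA, was incubated with 200 nM protein in PBS, 2% BSA, salmon testes DNA and 50 µM zinc acetate at 25 °C for 1 h and then washed.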
Consider “AGGATTAATTAGGCTTAATAAATTCGTCTCGCAGTTTACACGGAGTCACCTAGTGCAG”, for which the binding signal was 22000 fluorescence intensity (a.u.).
For “TCACCTGATTAGGCTTTCAATTGGGCCGAAATGAGACTGCCGGAGTCACCTAGTGCAG” the value was 21500 fluorescence intensity (a.u.); for “TATCTGATGAGAGCAGATTGCCACACATCACAGCATGCAGCGGAGTCACCTAGTGCAG”, 10300 fluorescence intensity (a.u.).
Consider “TCGATGTTAGATTTAATAGAATTAATTTCGTGTTATAAGACGGAGTCACCTAGTGCAG”, for which the binding signal was 7400 fluorescence intensity (a.u.).
To “AGTGAAAACGACGCTATATAATTGACAATCTGAAGGCAACCGGAGTCACCTAGTGCAG” belongs 9170 fluorescence intensity (a.u.); to “AGGATAAATAATCTAGGTATAATTTTATGTTTAGCAGCACCGGAGTCACCTAGTGCAG”, 5190 fluorescence intensity (a.u.); to “CGAGGCAGTGATTAATTAAGTAGCTAGCTAGTTACAGGCACGGAGTCACCTAGTGCAG”, 14300 fluorescence intensity (a.u.).
For “AATAACAGGAATCTGTCACATGCTCACATGTGTATAAGCCCGGAGTCACCTAGTGCAG” the value was 7010 fluorescence intensity (a.u.); for “ATGTTGAAGCCCAATTAACAGGTATATACCGTCGCCTCCTCGGAGTCACCTAGTGCAG”, 3510 fluorescence intensity (a.u.).
Regarding “CCAAAATTTAAAATTTAACATAAAATCTGAAGCTAATTTTCGGAGTCACCTAGTGCAG”, the binding signal is 12000 fluorescence intensity (a.u.).
On to “TGCTGATGAGCTTATACATCAGAGACCTGTGCATCGCCGTCGGAGTCACCTAGTGCAG”, for which the binding signal is 7770 fluorescence intensity (a.u.).
As for “TAATAATTTTAAAATTTGTTGAATAAGACAAGTGGTCAAACGGAGTCACCTAGTGCAG”, the binding signal was 12700 fluorescence intensity (a.u.).
To “GGGTAATTAGTCATAAGAATCAGGTGTCCCTTCACCATTGCGGAGTCACCTAGTGCAG” belongs 30400 fluorescence intensity (a.u.); to “TGTCAATTAGATTCAGCAGCAAGATGGTTGGAACTTGACCCGGAGTCACCTAGTGCAG”, 8500 fluorescence intensity (a.u.).
“CATGATTTGACAATATGGTGCTATAGTAAATATTTGCTAACGGAGTCACCTAGTGCAG”: the binding signal was 38100 fluorescence intensity (a.u.).
For “CTATGGACAAATTACGCATCTTCGATTGATGCTAGAGCACCGGAGTCACCTAGTGCAG”, the binding signal was 10500 fluorescence intensity (a.u.).
For “CTGATCATATAATTGAGAACCAAAATGCAGCCATGACCACCGGAGTCACCTAGTGCAG” the value was 19700 fluorescence intensity (a.u.).
With “ACCTTGATTATGCCAAGCACTTCCCAAAATTTGGTTATCTCGGAGTCACCTAGTGCAG”, the binding signal was 25600 fluorescence intensity (a.u.).
As to “TGGTATCGATTAACAGGTTAATTTGGAGCGTCATGGGCTACGGAGTCACCTAGTGCAG”, the binding signal was 10400 fluorescence intensity (a.u.).
For “TATTGATGATGAGCCCAGTTCTGAGTTATCCCGAGTCCTGCGGAGTCACCTAGTGCAG” the value was 5490 fluorescence intensity (a.u.).
For “GACGAGGTAATCATCAACCCAACAAAATTGATTAAACAAACGGAGTCACCTAGTGCAG” the value was 11300 fluorescence intensity (a.u.).
To “GACAGACATAACTAACAATATCATCAATATTAAGAAGATGCGGAGTCACCTAGTGCAG” belongs 3370 fluorescence intensity (a.u.).
As for “TTAAACGTAGATTATTAATAAAACTCATCCATAATCTTGGCGGAGTCACCTAGTGCAG”, the binding signal was 7420 fluorescence intensity (a.u.).
“CCCATCAAATTAACGCCTTCAAAGTTGGGCCGTCCAACGACGGAGTCACCTAGTGCAG”: the binding signal is 3200 fluorescence intensity (a.u.).
For the sequence “AATTTAATTGGAAAAGTAATTAAAATTCCTCTTTTCCTTTCGGAGTCACCTAGTGCAG”, the binding signal is 43400 fluorescence intensity (a.u.).
For “CCACATTTATATTGATCTAGATTTATTAATATCATTATGACGGAGTCACCTAGTGCAG” the value was 10800 fluorescence intensity (a.u.); for “GCCCACATTTGGCTATTCTGATTGGATGGCTAAATTTGGGCGGAGTCACCTAGTGCAG”, 12700 fluorescence intensity (a.u.); for “CTGTGGATTGATGATTACAAAGGTACAATGCACGTATGATCGGAGTCACCTAGTGCAG”, 44900 fluorescence intensity (a.u.).
For “AAAATGATTATCTTAAGTGGCTAAGGCTTACAATGAATTGCGGAGTCACCTAGTGCAG” the value was 28300 fluorescence intensity (a.u.).
For “GGAACATTGATAGATGGACTTTGTAAGTCAGGCAGAGTAGCGGAGTCACCTAGTGCAG” the value was 19400 fluorescence intensity (a.u.); for “ATTAGATTTACCGCAAACAATGACGTCCTCCCTGCCTGGACGGAGTCACCTAGTGCAG”, 4950 fluorescence intensity (a.u.); for “ATTTTATTTACTGATTATTGAAATGGATTATGGACTATTTCGGAGTCACCTAGTGCAG”, 18000 fluorescence intensity (a.u.).
With “AAAATATAATCATGAGAATGAGTTACGTTACATGAATGACCGGAGTCACCTAGTGCAG”, the binding signal is 3290 fluorescence intensity (a.u.).
Take “CATAACTTGCTGAGATGACAGATGATCAAACAAGCTCATGCGGAGTCACCTAGTGCAG”: the binding signal was 8260 fluorescence intensity (a.u.).
To “TAACGTAATTAATGTGTTGTTCATCAGGAATTAGGAGACGCGGAGTCACCTAGTGCAG” belongs 26900 fluorescence intensity (a.u.).
To “TCTGATATTGAAATTGAAGTTAATACAGATGATGAGGAGACGGAGTCACCTAGTGCAG” belongs 6070 fluorescence intensity (a.u.); to “GCCGGAATTAATACTAAATTTCCCGCGAAGTACAGAGGCGCGGAGTCACCTAGTGCAG”, 5760 fluorescence intensity (a.u.).
“GGTCCAGCCCTGCGCTACGGTGATTGGCCCACACCTGTCACGGAGTCACCTAGTGCAG”: the binding signal was 3880 fluorescence intensity (a.u.).
With “ATTTCAAAACATAATTTTAAATTTATGTTTTGGGCCTTTTCGGAGTCACCTAGTGCAG”, the binding signal was 4860 fluorescence intensity (a.u.).
For “CCAAATTGTATTGTGCACGCGCCGACAAGCCCGGACAGCCCGGAGTCACCTAGTGCAG” the value was 3980 fluorescence intensity (a.u.); for “TAGCAATAAATTTGCATGACTAACCTTTTGATCGGATGTTCGGAGTCACCTAGTGCAG”, 5500 fluorescence intensity (a.u.).
To “ATTCAATCAAATCACTCCAAGCAAGCAGTCTGCATCAGACCGGAGTCACCTAGTGCAG” belongs 18100 fluorescence intensity (a.u.).

The record behind these values is article PMC7819943, “Rice protein-binding microarrays: a tool to detect cis-acting elements near promoter regions in rice”.
